# ± gives the standard deviation of the averaged measurements. Some of the results follow.
# Test system: PfAP2-EXP AP2 domain (GST-tagged)
# Experiment: gcPBM binding intensity (ln(normalized median fluorescence intensity)); higher = stronger DNA binding
# In short: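 Binding intensity is the highest Masliner-normalised natural-log median intensity over replicate spots in either probe orientation. To obtain it, GST-tagged P. falciparum DNA-binding domains made in E. coli were incubated for 1 h on an Agilent 4 × 180k array of primer-extended double-stranded 36-bp intergenic genomic probes plus negative controls. Detection used Alexa488 anti-GST antibody with scanning at 488 nm.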
row,Sequence,gcPBM binding intensity (ln)
1,AAAAAAAAAAAAAAAAAAAAAAAAAAAATACGAAAG [GTGCAC_negctrl_site729],8.98 ± 0.028
2,ATATATATATATATATGTACTTAAAAAATATATACA [XGTACX_site8952],10.2 ± 0.53
3,TATTTTTTTTGTGTGTGTCCTCATGTAATACTGCAA [XGTACX_site1380],8.84 ± 0.57
4,CTTTTTAATTAATACACACACACACGGATATAAATA [CACACA_site7145],8.95 ± 0.49
5,TATATTAAACTTTGCACACATAATTTAACTACAAAG [CACACA_site3441],8.58 ± 0.24
6,AATCATTTATTGATGGTGCAATATACCATCTAATGA [GTGCAC_site9440],8.35 ± 0.014
7,AAAAAAAAAAAACACACACACACACCCAAATATATA [CACACA_site150],8.49 ± 0.61
8,CATAATACATATAACACACACAATTATACATAAAAT [CACACA_site3233],8.92 ± 0.26
9,TTATTAAAAAAAATATGTACTCACAATATAATATAT [XGTACX_site3738],8.3 ± 0.3
10,GAAATTTTTAAAAAGGTGCTTTTAACAAAAATTATT [GTGCAC_site9687],8.54 ± 0.071
11,TTTTTTTTTTCTTGTTGTACTTTTAATAATTCATAT [XGTACX_site4704],8.79 ± 0.42
12,ACCATCCTTAATACTTATTTTTTCACAATTAAGTAA [GTGCAC_negctrl_site269],8.63 ± 0.33
13,TATATATATATAACATGTACATAAAATACATTTATA [XGTACX_site7370],9.7 ± 0.2
14,TTAGCAACTATTACTACACACATTTGTATATAATTT [CACACA_site1591],8.5 ± 0.49
15,AAAAAAAAAAAAAGATGTACATATATTTTTATTATA [XGTACX_site654],8.23 ± 0.4
16,AACCATTCTTCTAATTGTACATTGAAAAATCATGAT [XGTACX_site3854],8.62 ± 0.44
17,AAGGATATAAAAAAACGTACGTACGATAATATAATT [XGTACX_site1292],8.88 ± 0.4
18,AGTATTTTAATTTCAGTGCATTTTATTCTATAATTA,8.71 ± 0.3
19,AAAAAAAAAAAAAATGCATGTGCGTAAATAATAATA [TGCATGCA_site793],8.93 ± 0.4
20,TTTAGGAAAGGCGGCACACATTTATATATTTATTTA [CACACA_site5931],8.28 ± 0.4
21,ATATATATCTATATTTGTACATATTACATTCAAGTT [XGTACX_site1749],8.66 ± 0.37
22,AAGTTTTCTTACAGATGTACTTTTTAAAAATAAACT [XGTACX_site6632],8.8 ± 0.59

row,Sequence,gcPBM binding intensity (ln)
1,TATAACTATTTATAATGTACTCATGTATAATTATAT [XGTACX_site7913],8.33 ± 0.44
2,TGCTATAATTTATATACACACAAATATATACTCATA [CACACA_site6111],8.31 ± 0.28
3,TTAATTTATTTATGCACACATATATAATTACACATA [CACACA_site4544],8.525 ± 0.078
4,TTTATATATTATATAAATATTATTATACTTTAAATA [TGCATGCA_negctrl_site236],8.01 ± 0.39
5,TTTTATCGATATATCTGTACATATTACTTATAATAA [XGTACX_site57],8.81 ± 0.47
6,ATGCTTTTGTCATGTGCACACACGTATATATTATAT [CACACA_site4163],9.12 ± 0.23
7,ACATGTATTTATAAGAGTACATATGTGTGCATGTTT [XGTACX_site7946],8.715 ± 0.035
8,TTTATAATATACATAACACACAATTATTATTTCTTA [CACACA_site3624],8.19 ± 0.4
9,TTATAACAAATATAGAGTACTAAAATTTTACGTTAT [XGTACX_site1410],8.43 ± 0.47
10,TTTTTTTCCTTATCTATATATAATCAAATTTTCTAC [CACACA_negctrl_site867],8.54 ± 0.43
11,AACTTTTAGAAGAACACACACATATAGATTATGACC [CACACA_site6256],8.8 ± 0.26
12,TCGAACATTAACATAACACACATATATATATATATA [CACACA_site2900],10.2 ± 0.32
13,AAGGTTATTTATATATGTACTTAATATATATATATG [XGTACX_site886],8.36 ± 0.3
14,ATGTACTATGATAATGCATGCAATAATACATTTTTA [TGCATGCA_site318],9.77 ± 0.18
15,TAATATATATATAATACACACTATTTTAATCACATA [CACACA_site4849],8.24 ± 0.42
16,TTATTATGTATATATGCACACAATACCCAAAACAAC [CACACA_site80],8.89 ± 0.21
17,GAAGATTTATCTTGCACACGCAAAAAAAAAAAAAAA [CACACA_site154],8.4 ± 0.27
18,TTTATTGCTCTATATGCACACCTTAATTCTTCATTT [CACACA_site8682],8.99 ± 0.33
19,AAAAATAATCATAGTAGTACAAAAAAAAAAAAAAAA [XGTACX_site3736],8.27 ± 0.61
20,TACGTAAATTCTAATACACACTATAGGATATTCTGC [CACACA_site7248],8.37 ± 0.44
21,GAAAATATTTCTATCTGTACTTATTTATATATATAT [XGTACX_site7317],9.54 ± 0.071
22,TGCATGTAATTTTTGTGTCCACATAAAATATTTAAT [XGTACX_site5652],9.175 ± 0.007
